In the supplement of paper PMC8728848:
The other results are listed elsewhere or left out.

Experiments:
Experiment in all cases: glycan array binding signal (z-score within array); higher = stronger binding
Conditions in all cases: glycan notation: IUPAC condensed, linker removed
[1] = molecular target: Neu5Ac(a2-3)Gal(b1-4)[Fuc(a1-3)]GlcNAc
How it was run: (§1)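 The binding signal is a Z-score computed within each array and averaged over linkers. Arrays of the same protein sequence at different concentrations or buffers were also averaged together. Data originate from 3228 arrays in the Consortium for Functional Glycomics database, kept only where the protein sequence was available.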

[2] = molecular target: Neu5Ac(a2-3)Gal(b1-4)[Fuc(a1-3)]GlcNAc(b1-3)Gal
How it was run: as §1

[3] = molecular target: Neu5Ac(a2-3)Gal(b1-4)[Fuc(a1-3)]GlcNAc(b1-3)Gal(b1-4)GlcNAc
How it was run: as §1

[4] = molecular target: Neu5Ac(a2-3)Gal(b1-4)[Fuc(a1-3)]GlcNAc(b1-3)Gal(b1-4)[Fuc(a1-3)]GlcNAc(b1-3)Gal(b1-4)[Fuc(a1-3)]GlcNAc
How it was run: as §1

[5] = molecular target: Neu5Ac(a2-3)Gal(b1-4)[Fuc(a1-3)]GlcNAc(b1-6)[Gal(b1-3)]GalNAc
How it was run: as §1

[6] = molecular target: Neu5Ac(a2-3)Gal(b1-4)[Fuc(a1-3)]GlcNAc6S
How it was run: as §1

[7] = molecular target: Neu5Ac(a2-3)Gal6S(b1-4)GlcNAc
How it was run: as §1

[8] = molecular target: Neu5Ac(a2-3)Gal6S(b1-4)[Fuc(a1-3)]GlcNAc
How it was run: as §1

Neu5Ac(a2-3)GalNAc = molecular target: Neu5Ac(a2-3)GalNAc
How it was run: as §1

[9] = molecular target: Neu5Ac(a2-3)GalNAc(b1-4)GlcNAc
How it was run: as §1

[10] = molecular target: Neu5Ac(a2-3)[GalNAc(b1-4)]Gal(b1-4)Glc
How it was run: as §1

[11] = molecular target: Neu5Ac(a2-3)[GalNAc(b1-4)]Gal(b1-4)GlcNAc
How it was run: as §1

[12] = molecular target: Neu5Ac(a2-3)[Neu5Ac(a2-6)]GalNAc
How it was run: as §1

Neu5Ac(a2-6)Gal = molecular target: Neu5Ac(a2-6)Gal
How it was run: as §1

Neu5Ac(a2-6)Gal(b1-4)Glc = molecular target: Neu5Ac(a2-6)Gal(b1-4)Glc
How it was run: as §1

[13] = molecular target: Neu5Ac(a2-6)Gal(b1-4)GlcNAc
How it was run: as §1

[14] = molecular target: Neu5Ac(a2-6)Gal(b1-4)GlcNAc(b1-2)Man(a1-3)[Gal(b1-4)GlcNAc(b1-2)Man(a1-6)]Man(b1-4)GlcNAc(b1-4)GlcNAc
How it was run: as §1

[15] = molecular target: Neu5Ac(a2-6)Gal(b1-4)GlcNAc(b1-2)Man(a1-3)[GlcNAc(b1-2)Man(a1-6)]Man(b1-4)GlcNAc(b1-4)GlcNAc
How it was run: as §1

[16] = molecular target: Neu5Ac(a2-6)Gal(b1-4)GlcNAc(b1-2)Man(a1-3)[GlcNAc(b1-2)Man(b1-4)GlcNAc(b1-2)Man(a1-6)]Man(b1-4)GlcNAc(b1-4)GlcNAc
How it was run: as §1

[17] = molecular target: Neu5Ac(a2-6)Gal(b1-4)GlcNAc(b1-2)Man(a1-3)[Neu5Ac(a2-6)Gal(b1-4)GlcNAc(b1-2)Man(a1-6)]Man(b1-4)GlcNAc(b1-4)GlcNAc
How it was run: as §1

[18] = molecular target: Neu5Ac(a2-6)Gal(b1-4)GlcNAc(b1-2)Man(a1-6)[Gal(b1-4)GlcNAc(b1-2)Man(a1-3)]Man(b1-4)GlcNAc(b1-4)GlcNAc
How it was run: as §1

[19] = molecular target: Neu5Ac(a2-6)Gal(b1-4)GlcNAc(b1-2)Man(a1-6)[GlcNAc(b1-2)Man(a1-3)]Man(b1-4)GlcNAc(b1-4)GlcNAc
How it was run: as §1

[20] = molecular target: Neu5Ac(a2-6)Gal(b1-4)GlcNAc(b1-3)Gal(b1-4)GlcNAc
How it was run: as §1

[21] = molecular target: Neu5Ac(a2-6)Gal(b1-4)GlcNAc(b1-3)Gal(b1-4)[Fuc(a1-3)]GlcNAc(b1-3)Gal(b1-4)[Fuc(a1-3)]GlcNAc
How it was run: as §1

[22] = molecular target: Neu5Ac(a2-6)Gal(b1-4)GlcNAc6S
How it was run: as §1

Neu5Ac(a2-6)GalNAc = molecular target: Neu5Ac(a2-6)GalNAc
How it was run: as §1

[23] = molecular target: Neu5Ac(a2-6)GalNAc(b1-4)GlcNAc
How it was run: as §1

Neu5Ac(a2-8)Neu5Ac = molecular target: Neu5Ac(a2-8)Neu5Ac
How it was run: as §1

[24] = molecular target: Neu5Ac(a2-8)Neu5Ac(a2-3)Gal(b1-4)Glc
How it was run: as §1

[25] = molecular target: Neu5Ac(a2-8)Neu5Ac(a2-3)[GalNAc(b1-4)]Gal(b1-4)Glc
How it was run: as §1

[26] = molecular target: Neu5Ac(a2-8)Neu5Ac(a2-8)Neu5Ac
How it was run: as §1

[27] = molecular target: Neu5Ac(a2-8)Neu5Ac(a2-8)Neu5Ac(a2-3)Gal(b1-4)Glc
How it was run: as §1

[28] = molecular target: Neu5Ac(a2-8)Neu5Ac(a2-8)Neu5Ac(a2-3)[GalNAc(b1-4)]Gal(b1-4)Glc
How it was run: as §1

[29] = molecular target: Neu5Ac(a2-8)Neu5Ac(a2-8)Neu5Ac(a2-8)Neu5Ac(a2-3)[GalNAc(b1-4)]Gal(b1-4)Glc
How it was run: as §1

[30] = molecular target: Neu5Ac(b2-6)Gal(b1-4)GlcNAc
How it was run: as §1

Neu5Ac(b2-6)GalNAc = molecular target: Neu5Ac(b2-6)GalNAc
How it was run: as §1

[31] = molecular target: Neu5Ac9Ac(a2-6)Gal(b1-4)GlcNAc
How it was run: as §1

[32] = molecular target: Neu5Gc(a2-3)Gal(b1-3)GlcNAc
How it was run: as §1

[33] = molecular target: Neu5Gc(a2-3)Gal(b1-3)[Fuc(a1-4)]GlcNAc
How it was run: as §1

Neu5Gc(a2-3)Gal(b1-4)Glc = molecular target: Neu5Gc(a2-3)Gal(b1-4)Glc
How it was run: as §1

[34] = molecular target: Neu5Gc(a2-3)Gal(b1-4)GlcNAc
How it was run: as §1

[35] = molecular target: Neu5Gc(a2-3)Gal(b1-4)[Fuc(a1-3)]GlcNAc
How it was run: as §1

[36] = molecular target: Neu5Gc(a2-6)Gal(b1-4)GlcNAc
How it was run: as §1

Neu5Gc(a2-6)GalNAc = molecular target: Neu5Gc(a2-6)GalNAc
How it was run: as §1

[37] = molecular target: Neu5Gc(b2-6)Gal(b1-4)GlcNAc
How it was run: as §1

B1: LSECtin (Homo sapiens), Q6UXB4 (protein)
chain: MEQESALRELRERVTQGLAEAGRGREDVRTELFRALEAVRLQNNSCEPCPTSWLSFEGSCYFFSVPKTTWAAAQDHCADASAHLVIVGGLDEQGFLTRNTRGRGYWLGLRAVRHLGKVQGYQWVDGVSLSFSHWNQGEPNDAWGRENCVMMLHTGLWNDAPCDSEKDGWICEKKAQLLTPPSALEPRPLQHVVSWGLLTSLAPGADCQRVFSSSSTAAESQKHLAQHSPVQPSAWALGPPCRPHPNSTHADPT
glycan array binding signal (z-score) [1]: -0.255 | glycan array binding signal (z-score) [2]: -0.278 | glycan array binding signal (z-score) [3]: -0.255 | glycan array binding signal (z-score) [4]: -0.262 | glycan array binding signal (z-score) [5]: -0.274 | glycan array binding signal (z-score) [6]: 0.026 | glycan array binding signal (z-score) [7]: -0.243 | glycan array binding signal (z-score) [8]: -0.24 | glycan array binding signal (z-score) (Neu5Ac(a2-3)GalNAc): -0.303 | glycan array binding signal (z-score) [9]: -0.303 | glycan array binding signal (z-score) [10]: -0.287 | glycan array binding signal (z-score) [11]: -0.298 | glycan array binding signal (z-score) [12]: -0.289 | glycan array binding signal (z-score) (Neu5Ac(a2-6)Gal): -0.301 | glycan array binding signal (z-score) (Neu5Ac(a2-6)Gal(b1-4)Glc): -0.298 | glycan array binding signal (z-score) [13]: -0.294 | glycan array binding signal (z-score) [14]: 0.242 | glycan array binding signal (z-score) [15]: 5.63 | glycan array binding signal (z-score) [16]: -0.286 | glycan array binding signal (z-score) [17]: -0.251 | glycan array binding signal (z-score) [18]: -0.247 | glycan array binding signal (z-score) [19]: 5.21 | glycan array binding signal (z-score) [20]: -0.309 | glycan array binding signal (z-score) [21]: -0.25 | glycan array binding signal (z-score) [22]: -0.298 | glycan array binding signal (z-score) (Neu5Ac(a2-6)GalNAc): -0.302 | glycan array binding signal (z-score) [23]: -0.301 | glycan array binding signal (z-score) (Neu5Ac(a2-8)Neu5Ac): -0.296 | glycan array binding signal (z-score) [24]: -0.29 | glycan array binding signal (z-score) [25]: -0.251 | glycan array binding signal (z-score) [26]: -0.307 | glycan array binding signal (z-score) [27]: -0.308 | glycan array binding signal (z-score) [28]: -0.277 | glycan array binding signal (z-score) [29]: -0.284 | glycan array binding signal (z-score) [30]: -0.307 | glycan array binding signal (z-score) (Neu5Ac(b2-6)GalNAc): -0.311 | glycan array binding signal (z-score) [31]: -0.299 | glycan array binding signal (z-score) [32]: -0.301 | glycan array binding signal (z-score) [33]: -0.253 | glycan array binding signal (z-score) (Neu5Gc(a2-3)Gal(b1-4)Glc): -0.3 | glycan array binding signal (z-score) [34]: -0.299 | glycan array binding signal (z-score) [35]: -0.303 | glycan array binding signal (z-score) [36]: -0.3 | glycan array binding signal (z-score) (Neu5Gc(a2-6)GalNAc): -0.283 | glycan array binding signal (z-score) [37]: -0.28
